Screen size: about 310,000 compounds; about 14,000 (4.5%) showed an effect of 50% or more. The effect is printed as a negative number. This is one part of the list.
Molecular target: human ether-à-go-go-related gene (hERG) potassium channel (human, UniProt Q12809)
Test: primary screen, population patch clamp on CHO cells stably expressing hERG
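Further: peak tail current of the secondary pulse compared with the same well before compound.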

Sequence of human ether-à-go-go-related gene (hERG) potassium channel (Q12809 whole entry, looked up): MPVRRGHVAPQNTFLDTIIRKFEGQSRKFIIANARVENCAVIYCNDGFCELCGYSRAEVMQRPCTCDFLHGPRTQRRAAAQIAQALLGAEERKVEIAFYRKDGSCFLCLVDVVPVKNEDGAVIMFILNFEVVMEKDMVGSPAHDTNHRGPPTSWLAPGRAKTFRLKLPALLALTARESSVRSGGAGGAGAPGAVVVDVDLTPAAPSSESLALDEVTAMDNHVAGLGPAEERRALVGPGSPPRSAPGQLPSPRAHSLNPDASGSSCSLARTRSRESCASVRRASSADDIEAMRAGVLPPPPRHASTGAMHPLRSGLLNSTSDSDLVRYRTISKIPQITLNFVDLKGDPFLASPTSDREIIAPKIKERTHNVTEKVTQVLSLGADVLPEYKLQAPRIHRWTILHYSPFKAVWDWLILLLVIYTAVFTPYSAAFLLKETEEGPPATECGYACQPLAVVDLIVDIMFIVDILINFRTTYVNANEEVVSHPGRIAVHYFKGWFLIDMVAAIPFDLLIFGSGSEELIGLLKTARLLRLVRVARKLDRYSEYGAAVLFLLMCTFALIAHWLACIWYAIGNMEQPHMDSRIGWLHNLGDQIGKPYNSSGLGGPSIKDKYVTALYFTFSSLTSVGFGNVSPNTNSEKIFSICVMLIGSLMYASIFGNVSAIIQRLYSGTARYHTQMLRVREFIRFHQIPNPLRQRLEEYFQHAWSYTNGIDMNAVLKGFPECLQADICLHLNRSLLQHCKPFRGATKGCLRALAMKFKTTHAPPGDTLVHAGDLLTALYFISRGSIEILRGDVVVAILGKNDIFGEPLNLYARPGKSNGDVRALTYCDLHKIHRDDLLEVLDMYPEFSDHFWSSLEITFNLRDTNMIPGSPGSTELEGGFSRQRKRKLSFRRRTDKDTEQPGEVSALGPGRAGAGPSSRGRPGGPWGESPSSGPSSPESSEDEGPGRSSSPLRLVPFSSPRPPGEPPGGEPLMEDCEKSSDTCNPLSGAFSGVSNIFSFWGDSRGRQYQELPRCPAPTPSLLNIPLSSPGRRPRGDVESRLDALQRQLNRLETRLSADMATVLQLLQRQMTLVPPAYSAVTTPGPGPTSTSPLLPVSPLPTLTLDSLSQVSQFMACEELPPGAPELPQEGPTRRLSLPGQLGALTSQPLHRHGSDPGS

In order of rising “hERG current change (%, negative = inhibition) at 10uM” value:
1. O=C(NCc1ccccc1)/C(=C/c1ccc([N+](=O)[O-])cc1)NC(=O)c1ccco1  -62.7%
2. CCOC(=O)C1(Cc2ccc(Cl)cc2)CCN(C(=O)c2cnc(C)cn2)CC1  -57.1%
3. N#Cc1cc2c(nc1SCC(=O)Nc1cc(Cl)ccc1Cl)C1CCN2CC1  -51.7%
4. CCOC(=O)c1c(NC(=O)C2CCCCC2)sc2c1CCN(CC)C2.Cl  -51.7%
5. COc1cc(/C=N/NC(=O)CN(Cc2ccco2)S(=O)(=O)c2ccccc2)ccc1O  -42.5%
6. CCN(CC)CCN1c2ccccc2Sc2ccccc21.O=C(O)C(=O)O  -41.3%
7. COc1cc(CN2CCC(CO)(CCOc3ccccc3)CC2)cc(OC)c1OC  -38.3%
8. O=C(COC(=O)[C@@H]1CCCN1C(=O)c1cccs1)Nc1ccc(F)cc1[N+](=O)[O-]  -37.9%
9. COCCn1c(SCC(=O)Nc2ccccc2OC)nc2c(oc3ccccc32)c1=O  -34%
10. O=C(C(=C1N(Cc2ccc(Cl)nc2)CCN1Cc1ccc(Cl)nc1)[N+](=O)[O-])C(Cl)Cl  -26.6%
11. COc1ccc(NC(=O)CN2CCN(c3c(C)cccc3C)CC2)cc1  -24.4%
12. Cn1nnnc1Sc1ncnc2scc(-c3ccccc3)c12  -23.4%
13. CN1CCN(S(=O)(=O)c2ccc(Nc3cccc(Cl)c3)c([N+](=O)[O-])c2)CC1  -20.7%
14. CC1(C)CC(=O)C2=C(C1)N(c1ccc(F)cc1)C(=O)CC2c1ccsc1 (stereo not shown)  -16%
15. COC(=O)C(C)n1cnc2c(nnn2-c2ccc(F)cc2)c1=O (stereo not shown)  -13.2%
16. O=C(Cn1nc(Cc2cccnc2)c2ccccc2c1=O)Nc1cc(F)ccc1F  -13.1%
17. CCOC(=O)Cc1csc(NC(=O)c2cc(C)cc(C)c2)n1  -12.9%
18. COC(=O)CSc1nc2sc(C)c(C)c2c(=O)n1C  -12.8%
19. O=C(c1cc(S(=O)(=O)NCc2ccco2)ccc1Br)N1CCOCC1  -11.2%
20. CC1(C)OC2OC(COC(=O)c3ccc([N+](=O)[O-])cc3)C3OC(C)(C)OC3C2O1 (stereo not shown)  -10.7%
21. COc1ccc(S(=O)(=O)NCc2ccco2)c2ccccc12  -9.68%
22. COc1ccccc1/C=N/NC(=O)C(=O)N1CCN(c2ccccc2OC)CC1  -9.23%
23. Fc1ccc(C2CCCN2Cc2nc(Cc3ccccc3F)no2)cc1 (stereo not shown)  -8.77%
24. N#Cc1ccc(OCC(=O)NCCc2ccccn2)cc1  -7.98%
25. CCn1cc(C(=O)N2CCCC(N3CCN(c4ccccc4C)CC3)C2)cn1 (stereo not shown)  -7.66%
26. COc1ccc(NC2=C(C(C)=O)C(c3ccccc3)C(C(C)=O)C(C)(O)C2)cc1 (stereo not shown)  -6.86%
27. CC1CCCN(S(=O)(=O)c2ccc(NC(=O)CN3C(=O)NC(C)(c4ccccc4)C3=O)cc2)C1 (stereo not shown)  -6.49%
28. CCn1cc(C(=O)C(F)(F)F)c2ccccc21  -6.36%
29. Cc1cccc(NC(=O)COc2cccc3c2CCN(Cc2ccccc2)C3=O)c1C  -5.8%
30. Cc1cccc(NC(=O)CNC(=O)COc2ccc(C(=O)c3ccc(F)cc3)cc2)c1C  -5.25%
31. Cc1ccc(Cc2nnc3n(-c4ccccc4)nc(C(=O)c4ccccc4)n3c2=O)cc1  -4.26%
32. O=C(NCCOc1ccccc1)c1cccc2c1C(=O)c1ccc(Cl)cc1S2(=O)=O  -4.25%
33. CC(=O)Nc1sc(N/N=C\c2cccc(Cl)c2)nc1-c1cccs1  -3.54%
34. O=C(COC(=O)c1cc(=O)[nH]c2ccccc12)NCc1cccs1  -3.12%
35. CCOC(=O)C(=CNc1ccc(S(N)(=O)=O)cc1)C(=O)OCC  -2.11%
36. COc1cccc(OC)c1C(=O)NNC(=O)c1cccc(COc2ccc3c(c2)CCC3)c1  -1.39%
37. CCOC(=O)c1c(S(=O)(=O)NCC(=O)Nc2ccc(C)cc2)c(C)n(C)c1C  -1.17%
38. CCSc1nc2c(c(=O)[nH]1)C(c1cccs1)C(C(=O)OC)=C(C)N2 (stereo not shown)  -0.799%
39. CCOC(=O)c1[nH]c2ccc(OC)cc2c1NC(=S)N1CCN(c2ccccc2)CC1  -0.7%
40. O=C(CNS(=O)(=O)c1ccccc1)N/N=C/c1ccncc1  -0.283%
41. COc1ccc(C2/C=C\CN(S(=O)(=O)c3cccs3)CC(=O)N2Cc2ccc(F)cc2)cc1 (stereo not shown)  -0.276%
42. Cc1ccc(CNC(=O)C2CCCN(S(=O)(=O)N3CC(C)CC(C)C3)C2)cc1 (stereo not shown)  0.631%
43. COC(=O)c1sc2ncccc2c1OCc1ccc(Cl)cc1  1.03%
44. COCCOC(=O)C1=C(C)NC(=O)NC1c1ccc(OC(=O)c2ccco2)c(OC)c1 (stereo not shown)  1.3%
45. O=C(CN(Cc1cccs1)C(=O)c1csnn1)NC1CCCC1  1.83%
46. Cc1ccc(NC(=O)c2nc3nccc(C)n3n2)c(C)c1  3.18%
47. COc1ccc(CCNC(=O)C(Sc2ccccn2)c2ccccc2)cc1OC (stereo not shown)  3.25%
48. C/C(=N\O)c1ccc(Cl)cc1Cl  3.42%
49. CCOC(=O)C1CCN(C(=O)Cn2nc(C)n3nc(-c4ccc(OC)cc4)cc3c2=O)CC1  4.09%
50. CC(C)C(C)NC(=O)CN1C(=O)NC2(CCCc3ccccc32)C1=O (stereo not shown)  4.87%
51. Cc1ccc(-c2ccc(C#N)c(=O)n2CC(=O)N(C)C)cc1  5.38%
52. O=C(O)CSCC(=O)N1CCCN(c2nc3ccc(Cl)cc3s2)CC1  5.89%
53. Cc1ccccc1NC(=O)C1CCCN(S(=O)(=O)c2ccc3c(c2)C(C)(C)C(=O)N3C)C1 (stereo not shown)  6.82%
54. COc1ccc(C(=O)N[C@H](C(=O)NCc2ccc(C)cc2)C(C)C)cc1  7.17%
55. O=C(Nc1cccc([N+](=O)[O-])c1)c1ccccc1  7.97%
56. O=C(NCc1cn(-c2ccccc2)nc1-c1ccc(F)cc1)c1cccc([N+](=O)[O-])c1  8.31%
57. CCOc1ccc(NS(=O)(=O)c2ccc(C(=O)N3CCCC3)cc2)cc1  8.35%
58. COC(=O)c1sc(-c2ccc(C(C)(C)C)cc2)cc1NC(=O)/C=C/C(=O)O  8.37%
59. O=C(CSc1ncn[nH]1)Nc1ccc(OCc2ccccc2)cc1  8.78%
60. CCN1CCCC(Sc2nc3c([nH]2)c(=S)n(C)c(=O)n3C)C1 (stereo not shown)  8.96%
61. CCCc1sc(N/N=C/c2ccccn2)nc1-c1ccc(F)cc1  9.31%
62. O=C1NCCN1C(=O)c1ccco1  9.96%
63. COc1ccccc1OCCOC(=O)Nc1ccccc1  10.1%
64. CC1CCc2c(sc(NC(=O)COC(=O)c3ccc(NC(=O)CC#N)cc3)c2C#N)C1 (stereo not shown)  10.4%
65. O=C(CCn1c(=O)oc2ccccc21)NC1=NCCS1  10.7%
66. CCOC(=O)c1ccccc1NC(=O)CC(C)CC(=O)O (stereo not shown)  10.9%
67. O=[N+]([O-])c1cc(S(=O)(=O)N2CCCC2)ccc1NCCc1ccccc1  11.3%
68. CC(=O)Nc1ccc(S(=O)(=O)N2CCN(C(=O)c3ccco3)CC2)cc1  12%
69. O=S(=O)(NCC1CC1)c1cc(Cl)cc(Cl)c1  12.1%
70. c1cc(-c2nnc3n2CCC3)[nH]n1  12.5%
71. O=C(CC12CC3CC(CC(Br)(C3)C1)C2)Nc1nncs1  12.6%
72. CN(C)S(=O)(=O)c1cccc(C(=O)N=C2N=C3C=CC(Cl)=CN3Cc3ccccc32)c1  14.2%
73. COc1ccc(-n2c(=O)[nH]c3cc(C(=O)NCCc4ccccc4)ccc3c2=O)cc1OC  14.3%
74. Cc1cc(C)cc(OCC(=O)NC(C)c2ccccc2)c1 (stereo not shown)  15.2%
75. Cc1ccc(CNS(=O)(=O)c2ccc(F)c(F)c2)n1C  15.3%
76. O=C(NCCCN1CCOCC1)C(c1ccccc1)c1ccccc1  15.6%
77. NC(=O)c1cnn(-c2cc(Oc3ccccc3)ncn2)c1N  15.9%
78. CC(C(=O)NCc1ccccc1)N1C(=O)c2ccccc2C1=O (stereo not shown)  16.1%
79. CCCC1(C(=O)OCC)NC(c2cc(OC)c(OC)c(OC)c2)C2C(=O)N(CC)C(=O)C21 (stereo not shown)  16.4%
80. NC(=O)CC(NC(=O)Cc1ccc(Cl)cc1)c1ccc(NC2CCCCCCC2)c([N+](=O)[O-])c1 (stereo not shown)  16.7%
81. CCOC(=O)N1CCN(C2CCCN(C(=O)c3cccc(N(C)C)c3)C2)CC1 (stereo not shown)  16.8%
82. COc1ccc(CCNc2cc(C)nc3c(-c4ccc(Cl)cc4)cnn23)cc1OC  17.1%
83. CCN(C(=O)CSc1nnc(C)n1Cc1ccccc1)C1CCS(=O)(=O)C1 (stereo not shown)  21.1%
84. O=C(CCc1ccccc1)Nc1nnc(-c2cccs2)o1  22.6%
85. CC(c1ccco1)N(C(=O)c1ccc(F)cc1)c1ccccn1 (stereo not shown)  22.9%

From publication PMC4336329 (PLoS ONE, 2015)
